# This is one part of the list.
# What was measured:
# Experiment in all cases: glycan array binding signal (z-score within array); higher = stronger binding
# Settings in all cases: glycan notation: IUPAC condensed, linker removed
# [1] = biological target: Man(a1-2)Man(a1-3)[Man(a1-2)Man(a1-6)]Man
# Summary of the method: (§1)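 Glycan array data were curated from 3228 arrays in the Consortium for Functional Glycomics database and kept only where the protein sequence was available. Glycan names were converted to IUPAC-condensed notation, and columns mapping to the same glycan were averaged. The binding signal is a within-array Z-score, averaged across arrays of the same protein sequence at different concentrations or buffers and across linkers. Negative Z-scores can be read as non-binding.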
# [2] = biological target: Man(a1-2)Man(a1-3)[Man(a1-2)Man(a1-6)]Man(a1-6)[Man(a1-2)Man(a1-2)Man(a1-3)]Man
# Summary of the method: as §1
# [3] = biological target: Man(a1-2)Man(a1-3)[Man(a1-2)Man(a1-6)]Man(a1-6)[Man(a1-2)Man(a1-2)Man(a1-3)]Man(b1-4)GlcNAc(b1-4)GlcNAc
# Summary of the method: as §1
# [4] = biological target: Man(a1-2)Man(a1-3)[Man(a1-6)]Man(a1-6)[Man(a1-2)Man(a1-3)]Man(b1-4)GlcNAc(b1-4)GlcNAc
# Summary of the method: as §1
# [5] = biological target: Man(a1-2)Man(a1-6)[Man(a1-3)]Man(a1-6)[Man(a1-2)Man(a1-2)Man(a1-3)]Man
# Summary of the method: as §1
# [6] = biological target: Man(a1-2)Man(a1-6)[Man(a1-3)]Man(a1-6)[Man(a1-2)Man(a1-2)Man(a1-3)]Man(b1-4)GlcNAc(b1-4)GlcNAc
# Summary of the method: as §1
# Man(a1-3)[Man(a1-6)]Man = biological target: Man(a1-3)[Man(a1-6)]Man
# Summary of the method: as §1
# [7] = biological target: Man(a1-3)[Man(a1-6)]Man(a1-6)[Man(a1-2)Man(a1-3)]Man(b1-4)GlcNAc(b1-4)GlcNAc
# Summary of the method: as §1
# [8] = biological target: Man(a1-3)[Man(a1-6)]Man(a1-6)[Man(a1-3)]Man
# Summary of the method: as §1
# [9] = biological target: Man(a1-3)[Man(a1-6)]Man(a1-6)[Man(a1-3)]Man(b1-4)GlcNAc(b1-4)GlcNAc
# Summary of the method: as §1
# [10] = biological target: Man(a1-3)[Man(a1-6)]Man(b1-4)GlcNAc(b1-4)GlcNAc
# Summary of the method: as §1
# [11] = biological target: Man(a1-3)[Man(a1-6)]Man(b1-4)GlcNAc(b1-4)[Fuc(a1-6)]GlcNAc
# Summary of the method: as §1
# Man(a1-6)Man = biological target: Man(a1-6)Man
# Summary of the method: as §1
# Man(b1-4)GlcNAc = biological target: Man(b1-4)GlcNAc
# Summary of the method: as §1
# MurNAc(b1-4)GlcNAc = biological target: MurNAc(b1-4)GlcNAc
# Summary of the method: as §1
# Neu5Ac(a2-3)Gal = biological target: Neu5Ac(a2-3)Gal
# Summary of the method: as §1
# [12] = biological target: Neu5Ac(a2-3)Gal(b1-3)GalNAc
# Summary of the method: as §1
# [13] = biological target: Neu5Ac(a2-3)Gal(b1-3)GalNAc(b1-3)Gal(a1-4)Gal(b1-4)Glc
# Summary of the method: as §1
# [14] = biological target: Neu5Ac(a2-3)Gal(b1-3)GalNAc(b1-4)[Neu5Ac(a2-3)]Gal(b1-4)Glc
# Summary of the method: as §1
# [15] = biological target: Neu5Ac(a2-3)Gal(b1-3)GalNAc(b1-4)[Neu5Ac(a2-8)Neu5Ac(a2-3)]Gal(b1-4)Glc
# Summary of the method: as §1
# [16] = biological target: Neu5Ac(a2-3)Gal(b1-3)GalNAc6S
# Summary of the method: as §1
# [17] = biological target: Neu5Ac(a2-3)Gal(b1-3)GlcNAc
# Summary of the method: as §1
# [18] = biological target: Neu5Ac(a2-3)Gal(b1-3)GlcNAc(b1-2)Man
# Summary of the method: as §1
# [19] = biological target: Neu5Ac(a2-3)Gal(b1-3)GlcNAc(b1-2)Man(a1-3)[GlcNAc(b1-4)][Neu5Ac(a2-3)Gal(b1-3)GlcNAc(b1-2)Man(a1-6)]Man(b1-4)GlcNAc(b1-4)GlcNAc
# Summary of the method: as §1
# [20] = biological target: Neu5Ac(a2-3)Gal(b1-3)GlcNAc(b1-2)Man(a1-3)[Neu5Ac(a2-3)Gal(b1-3)GlcNAc(b1-2)Man(a1-6)]Man(b1-4)GlcNAc(b1-4)GlcNAc
# Summary of the method: as §1
# [21] = biological target: Neu5Ac(a2-3)Gal(b1-3)GlcNAc(b1-3)Gal(b1-3)GlcNAc
# Summary of the method: as §1
# [22] = biological target: Neu5Ac(a2-3)Gal(b1-3)GlcNAc(b1-3)Gal(b1-4)GlcNAc
# Summary of the method: as §1
# [23] = biological target: Neu5Ac(a2-3)Gal(b1-3)GlcNAc(b1-3)GalNAc
# Summary of the method: as §1
# [24] = biological target: Neu5Ac(a2-3)Gal(b1-3)GlcNAc(b1-4)Gal(b1-4)Glc
# Summary of the method: as §1
# [25] = biological target: Neu5Ac(a2-3)Gal(b1-3)GlcNAc(b1-6)GalNAc
# Summary of the method: as §1
# [26] = biological target: Neu5Ac(a2-3)Gal(b1-3)GlcNAc6S
# Summary of the method: as §1
# [27] = biological target: Neu5Ac(a2-3)Gal(b1-3)[Fuc(a1-4)]GlcNAc
# Summary of the method: as §1
# [28] = biological target: Neu5Ac(a2-3)Gal(b1-3)[Fuc(a1-4)]GlcNAc(b1-3)Gal(b1-3)[Fuc(a1-4)]GlcNAc
# Summary of the method: as §1
# [29] = biological target: Neu5Ac(a2-3)Gal(b1-3)[Fuc(a1-4)]GlcNAc(b1-3)Gal(b1-4)[Fuc(a1-3)]GlcNAc
# Summary of the method: as §1
# [30] = biological target: Neu5Ac(a2-3)Gal(b1-3)[GlcNAc(b1-6)]GalNAc
# Summary of the method: as §1
# [31] = biological target: Neu5Ac(a2-3)Gal(b1-3)[Neu5Ac(a2-6)]GalNAc
# Summary of the method: as §1
# [32] = biological target: Neu5Ac(a2-3)Gal(b1-3)[Neu5Ac(a2-6)]GlcNAc(b1-3)[Fuc(a1-3)[Gal(b1-4)]GlcNAc(b1-6)]Gal(b1-4)Glc
# Summary of the method: as §1
# [33] = biological target: Neu5Ac(a2-3)Gal(b1-3)]Neu5Ac(a2-3)Gal(b1-4)]GlcNAc
# Summary of the method: as §1
binder,measurement,setting,value
Threefoil (Haloarcula marismortui) (protein) GSSHHHHHHHHHHSSGLVPRGSHMGDGYYKLVARHSGKALDVENASTSDGANVIQYSYSGGDNQQWRLVDLGDGYYKLVARHSGKALDVENASTSDGANVIQYSYSGGDNQQWRLVDLGDGYYKLVARHSGKALDVENASTSDGANVIQYSYSGGDNQQWRLVDL,glycan array binding signal (z-score),[1],-0.247
same,glycan array binding signal (z-score),[2],-0.023
same,glycan array binding signal (z-score),[3],-0.334
same,glycan array binding signal (z-score),[4],-0.319
same,glycan array binding signal (z-score),[5],-0.187
same,glycan array binding signal (z-score),[6],-0.207
same,glycan array binding signal (z-score),Man(a1-3)[Man(a1-6)]Man,-0.329
same,glycan array binding signal (z-score),[7],-0.166
same,glycan array binding signal (z-score),[8],-0.234
same,glycan array binding signal (z-score),[9],-0.144
same,glycan array binding signal (z-score),[10],-0.238
same,glycan array binding signal (z-score),[11],-0.198
same,glycan array binding signal (z-score),Man(a1-6)Man,-0.242
same,glycan array binding signal (z-score),Man(b1-4)GlcNAc,0.763
same,glycan array binding signal (z-score),MurNAc(b1-4)GlcNAc,-0.047
same,glycan array binding signal (z-score),Neu5Ac(a2-3)Gal,-0.291
same,glycan array binding signal (z-score),[12],-0.252
same,glycan array binding signal (z-score),[13],-0.283
same,glycan array binding signal (z-score),[14],-0.148
same,glycan array binding signal (z-score),[15],-0.245
same,glycan array binding signal (z-score),[16],-0.067
same,glycan array binding signal (z-score),[17],-0.198
same,glycan array binding signal (z-score),[18],-0.149
same,glycan array binding signal (z-score),[19],-0.252
same,glycan array binding signal (z-score),[20],-0.195
same,glycan array binding signal (z-score),[21],-0.139
same,glycan array binding signal (z-score),[22],-0.3
same,glycan array binding signal (z-score),[23],-0.266
same,glycan array binding signal (z-score),[24],-0.272
same,glycan array binding signal (z-score),[25],-0.324
same,glycan array binding signal (z-score),[26],-0.17
same,glycan array binding signal (z-score),[27],-0.243
same,glycan array binding signal (z-score),[28],-0.148
same,glycan array binding signal (z-score),[29],-0.183
same,glycan array binding signal (z-score),[30],-0.377
same,glycan array binding signal (z-score),[31],-0.151
same,glycan array binding signal (z-score),[32],-0.154
same,glycan array binding signal (z-score),[33],-0.136

# — the supplement of paper PMC8728848
